18 molecules from patent US11178870B2 (priority 2017, dated 2021) can be followed below.

What all share (type): in vivo
The subject of experiment [1] is Botrytis cinerea. The experiment in a line: Test Example B: Gray mold on tomato. Particulars: class of control value, Table 7.
In experiment [2] the test system is Puccinia recondita. The experiment in a line: Test Example E: Brown rust on wheat. Conditions: class of control value, Table 7.
In experiment [3] the test system is Blumeria graminis f. sp. hordei. The experiment in a line: Test Example D: Powdery mildew on barley. Particulars: class of control value, Table 7.
The test system of experiment [4] is Alternaia brassicicola. The experiment in a line: Test Example C: Alternaria sooty spot on cabbage. Conditions: class of control value, Table 7.
In experiment [5] the test system is Plasmopara viticola. The experiment in a line: Test Example G: Downy mildew on vine. Conditions: 250 ppm spray, 2.5 ml/pot; investigated 7 to 10 days after inoculation.

As to `Cn1c(-c2c(F)cccc2F)c(-c2sccc2Cl)cc(Br)c1=O` [Compound 441], the “Test B control value (gray mold on tomato)” value (“Test B control value” for short) in experiment [1] was “H (H shows the control value more than 50%)”. For the same molecule, the “Test E control value (brown rust on wheat)” value (“Test E control value” below) in experiment [2] is reported as “H (H shows the control value more than 50%)”. For the same molecule, in experiment [3], the “Test D control value (powdery mildew on barley)” value (shortened to “Test D control value”) is given as “L (L shows the control value of 50% or less)”. For the same molecule, in experiment [4], the “Test C control value (Alternaria sooty spot on cabbage)” value (“Test C control value” below) was “H (H shows the control value more than 50%)”. For the same molecule, in experiment [5], the “Test G control value (downy mildew on vine)” value (from here on “Test G control value”) is “L (L shows the control value of 50% or less)”.

As to `Cn1c(-c2c(F)cccc2F)c(-c2sc(Br)cc2Cl)cc(Br)c1=O` [Compound 442], the “Test B control value” value in experiment [1] is “L (L shows the control value of 50% or less)”. Moreover, the “Test E control value” value in experiment [2] was “L (L shows the control value of 50% or less)”. Further, the “Test D control value” value in experiment [3] is given as “L (L shows the control value of 50% or less)”. In addition, the “Test C control value” value in experiment [4] is reported as “L (L shows the control value of 50% or less)”. Further, the “Test G control value” value in experiment [5] is reported as “L (L shows the control value of 50% or less)”.

Regarding `Cc1cc(Br)sc1-c1ccc(=O)n(CC(F)F)c1-c1c(F)cccc1F` [Compound 443], in experiment [1], the “Test B control value” value is given as “H (H shows the control value more than 50%)”. Further, the “Test E control value” value in experiment [2] was “H (H shows the control value more than 50%)”. Further, in experiment [3], the “Test D control value” value is “H (H shows the control value more than 50%)”. Besides, the “Test C control value” value in experiment [4] is given as “H (H shows the control value more than 50%)”. Moreover, the “Test G control value” value in experiment [5] is given as “L (L shows the control value of 50% or less)”.

In the case of `CCn1c(-c2c(F)cccc2F)c(-c2ccsc2C)cc(Br)c1=O` [Compound 444], the “Test B control value” value in experiment [1] is reported as “L (L shows the control value of 50% or less)”. In experiment [2], the “Test E control value” value is recorded as “H (H shows the control value more than 50%)”. The “Test D control value” value in experiment [3] is “L (L shows the control value of 50% or less)”. Besides, the “Test C control value” value in experiment [4] is “H (H shows the control value more than 50%)”. Further, the “Test G control value” value in experiment [5] is “L (L shows the control value of 50% or less)”.

Regarding `Cc1ccsc1-c1cc(Cl)c(=O)n(CC(F)F)c1-c1c(F)cccc1F` [Compound 445], the “Test B control value” value in experiment [1] is recorded as “H (H shows the control value more than 50%)”. The “Test E control value” value in experiment [2] is reported as “H (H shows the control value more than 50%)”. The “Test D control value” value in experiment [3] is given as “H (H shows the control value more than 50%)”. Moreover, in experiment [4], the “Test C control value” value was “H (H shows the control value more than 50%)”. For the same molecule, the “Test G control value” value in experiment [5] is “L (L shows the control value of 50% or less)”.

As to `Cc1ccsc1-c1cc(Br)c(=O)n(CC(F)F)c1-c1c(F)cccc1F` [Compound 446], in experiment [1], the “Test B control value” value is “H (H shows the control value more than 50%)”. The “Test E control value” value in experiment [2] is listed as “H (H shows the control value more than 50%)”. Also, the “Test D control value” value in experiment [3] is given as “H (H shows the control value more than 50%)”. Also, the “Test C control value” value in experiment [4] is reported as “H (H shows the control value more than 50%)”. Moreover, the “Test G control value” value in experiment [5] is “L (L shows the control value of 50% or less)”.

Turning to `O=c1ccc(-n2cc(F)cn2)c(-c2ccc(F)cc2Br)n1CC(F)F` [Compound 447], the “Test B control value” value in experiment [1] is on record as “H (H shows the control value more than 50%)”. The “Test E control value” value in experiment [2] is recorded as “H (H shows the control value more than 50%)”. Further, the “Test D control value” value in experiment [3] was “H (H shows the control value more than 50%)”. Further, in experiment [4], the “Test C control value” value is listed as “H (H shows the control value more than 50%)”. Also, the “Test G control value” value in experiment [5] is “L (L shows the control value of 50% or less)”.

With `O=c1c(Cl)cc(-n2cc(F)cn2)c(-c2ccc(F)cc2Br)n1CC(F)F` [Compound 448], in experiment [1], the “Test B control value” value is reported as “H (H shows the control value more than 50%)”. The “Test E control value” value in experiment [2] is “H (H shows the control value more than 50%)”. In experiment [3], the “Test D control value” value is recorded as “H (H shows the control value more than 50%)”. The “Test C control value” value in experiment [4] is reported as “H (H shows the control value more than 50%)”. Besides, in experiment [5], the “Test G control value” value was “L (L shows the control value of 50% or less)”.

Regarding `O=c1c(Br)cc(-n2cc(F)cn2)c(-c2ccc(F)cc2Br)n1CC(F)F` [Compound 449], the “Test B control value” value in experiment [1] is reported as “H (H shows the control value more than 50%)”. The “Test E control value” value in experiment [2] was “H (H shows the control value more than 50%)”. In experiment [3], the “Test D control value” value is “H (H shows the control value more than 50%)”. The “Test C control value” value in experiment [4] was “H (H shows the control value more than 50%)”. In addition, the “Test G control value” value in experiment [5] is recorded as “L (L shows the control value of 50% or less)”.

Regarding `COc1ccc(-c2c(-n3cc(F)cn3)cc(Br)c(=O)n2CC(F)F)c(Br)c1` [Compound 450], in experiment [1], the “Test B control value” value is “H (H shows the control value more than 50%)”. The “Test E control value” value in experiment [2] is “H (H shows the control value more than 50%)”. Besides, the “Test D control value” value in experiment [3] is on record as “L (L shows the control value of 50% or less)”. In addition, the “Test C control value” value in experiment [4] is “H (H shows the control value more than 50%)”. Also, the “Test G control value” value in experiment [5] is “L (L shows the control value of 50% or less)”.

Consider `Cn1c(-c2ccc(F)cc2Cl)c(-n2cc(Cl)cn2)ccc1=O` [Compound 451], for which, in experiment [1], the “Test B control value” value was “L (L shows the control value of 50% or less)”. The “Test E control value” value in experiment [2] is recorded as “H (H shows the control value more than 50%)”. For the same molecule, the “Test D control value” value in experiment [3] is given as “H (H shows the control value more than 50%)”. The “Test C control value” value in experiment [4] is “H (H shows the control value more than 50%)”. Besides, the “Test G control value” value in experiment [5] is reported as “H (H shows the control value more than 50%)”.

On to `Cn1c(-c2ccc(F)cc2Cl)c(-n2cc(Cl)cn2)cc(Cl)c1=O` [Compound 452], for which the “Test B control value” value in experiment [1] is “H (H shows the control value more than 50%)”. In experiment [2], the “Test E control value” value is “H (H shows the control value more than 50%)”. Moreover, in experiment [3], the “Test D control value” value is reported as “H (H shows the control value more than 50%)”. Besides, the “Test C control value” value in experiment [4] was “H (H shows the control value more than 50%)”. Besides, in experiment [5], the “Test G control value” value is reported as “L (L shows the control value of 50% or less)”.

Consider `Cn1c(-c2ccc(F)cc2Cl)c(-n2cc(Cl)cn2)cc(Br)c1=O` [Compound 453], for which, in experiment [1], the “Test B control value” value is “H (H shows the control value more than 50%)”. The “Test E control value” value in experiment [2] is given as “H (H shows the control value more than 50%)”. Further, the “Test D control value” value in experiment [3] is “L (L shows the control value of 50% or less)”. Also, the “Test C control value” value in experiment [4] is “H (H shows the control value more than 50%)”. The “Test G control value” value in experiment [5] was “L (L shows the control value of 50% or less)”.

`CN1C(=O)CCC(c2ccsc2Br)=C1c1c(F)cccc1F` [Compound 454]: the “Test B control value” value in experiment [1] is listed as “H (H shows the control value more than 50%)”. For the same molecule, in experiment [2], the “Test E control value” value is recorded as “H (H shows the control value more than 50%)”. Moreover, the “Test D control value” value in experiment [3] is “H (H shows the control value more than 50%)”. Moreover, the “Test C control value” value in experiment [4] is “H (H shows the control value more than 50%)”. For the same molecule, the “Test G control value” value in experiment [5] is “H (H shows the control value more than 50%)”.

In the case of `CN(C)n1c(-c2c(F)cccc2F)c(-c2ccsc2Cl)cc(Br)c1=O` [Compound 455], the “Test B control value” value in experiment [1] is given as “L (L shows the control value of 50% or less)”. For the same molecule, the “Test E control value” value in experiment [2] was “L (L shows the control value of 50% or less)”. In experiment [3], the “Test D control value” value is given as “L (L shows the control value of 50% or less)”. In addition, the “Test C control value” value in experiment [4] is listed as “H (H shows the control value more than 50%)”. Moreover, the “Test G control value” value in experiment [5] was “L (L shows the control value of 50% or less)”.

In the case of `Cn1c(-c2c(F)cccc2F)c(-c2ccsc2Br)ccc1=O` [Compound 456], the “Test B control value” value in experiment [1] is “H (H shows the control value more than 50%)”. Also, the “Test E control value” value in experiment [2] was “H (H shows the control value more than 50%)”. The “Test D control value” value in experiment [3] is recorded as “L (L shows the control value of 50% or less)”. Besides, the “Test C control value” value in experiment [4] is on record as “H (H shows the control value more than 50%)”. In experiment [5], the “Test G control value” value was “L (L shows the control value of 50% or less)”.

As to `Cc1ccsc1C1=C(c2c(F)cccc2F)N(C)C(=O)CC1` [Compound 457], in experiment [1], the “Test B control value” value is on record as “H (H shows the control value more than 50%)”. Further, the “Test E control value” value in experiment [2] was “H (H shows the control value more than 50%)”. In addition, in experiment [3], the “Test D control value” value is given as “L (L shows the control value of 50% or less)”. Moreover, in experiment [4], the “Test C control value” value is given as “H (H shows the control value more than 50%)”. In addition, in experiment [5], the “Test G control value” value is on record as “L (L shows the control value of 50% or less)”.

Consider `CCn1c(-c2ccc(F)cc2Cl)c(-c2ccsc2Cl)cc(Cl)c1=O` [Compound 460], for which, in experiment [1], the “Test B control value” value was “H (H shows the control value more than 50%)”. Also, in experiment [2], the “Test E control value” value was “H (H shows the control value more than 50%)”. Further, the “Test D control value” value in experiment [3] was “H (H shows the control value more than 50%)”. Besides, the “Test C control value” value in experiment [4] is “H (H shows the control value more than 50%)”. Also, in experiment [5], the “Test G control value” value is reported as “H (H shows the control value more than 50%)”.
